Data taken from PMC12136788.
This is one part of the list.

B1: chr3:179570125:179570235:+|CDS|ENSG00000136518|unk|FALSE|unique (ssRNA)
RNA: GGGAGUUCUACAGUCCGACGAUCAAGCACAUUAAUGGAAAUAGAUGGCGAUAAAGGCAAACAAGGCGGUCCCACCUACUACAUAGAUACUAAUGCUCUGCGUGUUCCGAGGGAGAAUAUGGAGGCCAUUUCACCUCUAAAAAACAACAGAGGAUUGAGCAUCA
B2: chr6:134169319:134169461:-|3pUTR|ENSG00000118515|unk|total|mutant (ssRNA)
RNA: GGGAGUUCUACAGUCCGACGAUCUGCAUUCCUGAUAAUUGUAUGUAUUGUAUAAAGAACGUCUGUACAUUGGGUUAUAACACCCGUAUAUUUAAACUUACAGGCUUAUUUGUAAUGUAAACCACCAUUUUAAUGUACUGUAAUCAACAGAGGAUUGAGCAUCA
B3: chr11:119418913:119419014:-|3pUTR|ENSG00000154096|msi1|total|mutant (ssRNA)
RNA: GGGAGUUCUACAGUCCGACGAUCAUCGGGACCAGAAACCUGGGAGAGACUUGGAUGAGGAGUGGUUGGGCUGUGCCUGGGCCCCGCACGGACAUGGUCUGUCCUGACAGCACUCCUCGGCAGGCAUGGCUGGUGCCUGAAGACCAACAGAGGAUUGAGCAUCA
B4: chr17:5384886:5384987:+|3pUTR|ENSG00000029725|unk|FALSE|unique (ssRNA)
RNA: GGGAGUUCUACAGUCCGACGAUCGGUUUAAGACUAGUCCCUUGGAUAAGCCCCAAGCGAAUUUGUCUUCAGAUUAUUAAAAUUAGUGCUGUAAAUCAGGGUGGGCAAUUCACAGCCUUUCUGAACUGACUGAACUAGAGCUUGCAACAGAGGAUUGAGCAUCA
B5: chr12:39618871:39619093:-|CDS|ENSG00000173208|unk|FALSE|unique (ssRNA)
RNA: GGGAGUUCUACAGUCCGACGAUCUAUUAUGAUGUUCUCCCAAUCUGUGGCUCACUUGUAUUCCAAUCUGACCAAACCUAUUUUAGAUGUAAUGCUGACCUCCUAUACACUCAUUCAAACUGCUACAUCCAGAGGAGCAAGCCCCAACAGAGGAUUGAGCAUCA
B6: ENSG00000107863:be:win_1701|CDS|ENSG00000107863|bound_else_gene|NA|bound_elsewhere_windowed (ssRNA)
RNA: GGGAGUUCUACAGUCCGACGAUCUGAUAACAGGCGAAUGAGUGGUAGAGGAGUGGGAUCUGUGUCGCAGUUUAAAAAAAUUCCACCAGAUCUAAAAACAUUGCAGUCAAACAGAAAUUUUCAGACUACUUGUGGAAUGUCACUCAACAGAGGAUUGAGCAUCA
B7: chr11:7467339:7467451:+|3pUTR|ENSG00000170743|unk|FALSE|unique (ssRNA)
RNA: GGGAGUUCUACAGUCCGACGAUCCCAAGAGAAUACCAAGACAAGCAGGCUGUUCCCUGGAAAAAAUCUAAUGCAAGGAGGGCUAGUUCACAGCAAAUUCACUGCCUCCUCCCAUGCACGUGGUAGAGAGUACCAGUAUCAACACAACAGAGGAUUGAGCAUCA
B8: ENSG00000139233:stop:overlap|stop_codon|ENSG00000139233|stop_codon|NA|stop_codon (ssRNA)
RNA: GGGAGUUCUACAGUCCGACGAUCAGAAAAGAAAGGGGAAAAGCAAAGCAAAAGCAGUGAAAGUGGCAAAGGGUUUGGCCUGGUAGACUCUUAAAACCUUGGAAAAUGCCACAUGGGAUAGAUGACGGAUUAGAAUGUAUACACCAACAGAGGAUUGAGCAUCA
B9: chr19:12875797:12875908:-|3pUTR|ENSG00000105612|unk|FALSE|unique (ssRNA)
RNA: GGGAGUUCUACAGUCCGACGAUCUUCGAGACCAGCCUGGGCUACAUAGUGAGACCACAUCUCUACUAGAACUUAAAAAAAGUUAGCCAGGCACGGUGAUAAAUGCCUGUAGUCCCAGCCACUGAAGCCAGAGGAUCGAUUGAACAACAGAGGAUUGAGCAUCA
B10: ENSG00000070961:be:win_4351|3pUTR|ENSG00000070961|bound_else_gene|NA|bound_elsewhere_windowed (ssRNA)
RNA: GGGAGUUCUACAGUCCGACGAUCGAAAAAAACAAAACAAAACAAAAAAACAUGAGCAGUGGUGUUCUAAUGAAGUUAUGACAUCUGUCCUAAUUAGUUUCUUAAAUACAUUUACUACUUAAUGGUUUUGAAGCAACUGUUUAACAACAGAGGAUUGAGCAUCA
B11: chr12:109554177:109554278:-|3pUTR|ENSG00000139428|unk|FALSE|unique (ssRNA)
RNA: GGGAGUUCUACAGUCCGACGAUCUUGCUAUGUGCAGUGCCCUGAGCCAAGUGUUCCACAGACAUUAUCUCAUUUGAACCCCAUAGCAGCCCUGGAAGGAGGCAUUGGGUGGGGAACCAAGUUGUCCUGGGGAGUCAGUGCCAACAACAGAGGAUUGAGCAUCA
B12: chr10:80519475:80519574:+|3pUTR|ENSG00000108219|msi1_unk|FALSE|overlapping (ssRNA)
RNA: GGGAGUUCUACAGUCCGACGAUCAGUGUGGUGUAUACUGGUGGCUGUUGAUGAUGAUUUUUUUUUUUUUACACAAUUCUCUGUAGACUAGGAGAAGAAUGCUUGUGUUUUUCGGAAGUGUGAUGCUUCUCUUUGACUGCCAAACAACAGAGGAUUGAGCAUCA
B13: chr11:43494716:43494817:+|3pUTR|ENSG00000052841|unk|total|mutant (ssRNA)
RNA: GGGAGUUCUACAGUCCGACGAUCGUUACCCAUCUUGGAAUAAGUUGUGAAUGUCAGCUCCCUCUCUCUGAGGCCUCCAGACUCCGCUCCUCAGGAGGGUAAUGAGCCAAGGUUGAGUGUUUCCAUACAAUGCUUUUACCUUUGCAACAGAGGAUUGAGCAUCA
B14: chr11:118751385:118751486:-|3pUTR|ENSG00000110367|msi1|total|mutant (ssRNA)
RNA: GGGAGUUCUACAGUCCGACGAUCUUGAAGUCUCUUCCCUUUCUACCCAGUACUCGAGCCCAGGGCCCGAAGUUGAAACUCACCCGUAAUGUUAAACACCAUUUUUUUUUUCUUUUUGGGGAGGAGUUGAUAUGCAACUGCAGUCAACAGAGGAUUGAGCAUCA
B15: chr15:89832191:89832292:-|3pUTR|ENSG00000157823|msi1|FALSE|unique (ssRNA)
RNA: GGGAGUUCUACAGUCCGACGAUCCUAGGUAGCUGGAACCACAGGCACGCAACCACCACUCCUGGCUAGUUUUAUUUUUUUAGUAGAAUAAGGUCUCACUAUGUUGCACAGGCUGGUCUCUAACUCCUUACCUCAAGCCAUCCUCAACAGAGGAUUGAGCAUCA
B16: chr21:36416827:36416928:+|3pUTR|ENSG00000159259|unk|FALSE|unique (ssRNA)
RNA: GGGAGUUCUACAGUCCGACGAUCAACUUUGGAAGGUAGUUGUGUUUGUUUUCUGAUUUUAAAGGUGACGAUGCUUAUUCUUUUAGUAACUAAGUGAAGUGAAAAAGAUGGGUAUCACCCAUCAUCUUCCCACCAGAAGUAACCCAACAGAGGAUUGAGCAUCA
B17: chr9:95099063:95099164:-|3pUTR|ENSG00000158169|unk|FALSE|unique (ssRNA)
RNA: GGGAGUUCUACAGUCCGACGAUCGAGCGCCCCUCCAACCAGGCUGUUAUUCCCCUGGACUCCGUGACAUCUGUGGAAUUUUUUAGCUCUUUAAAAUCUGUAAUUUGUUGUCUAUUUUUUCAUUCUAAAUAAAACUUCAGUUUGCAACAGAGGAUUGAGCAUCA
B18: ENSG00000100485:stop:overlap|stop_codon|ENSG00000100485|stop_codon|NA|stop_codon (ssRNA)
RNA: GGGAGUUCUACAGUCCGACGAUCAUAUAUAUACACAUAUAUAUACACACACACACACAUUUUAUGUGUCAGUUUUCAAUAUAUAGUUAACACAAAAGCUCUCAGCUUUUAAUUCAAAUAUAGGGAAUAUUUUUAACUUCACAGCAACAGAGGAUUGAGCAUCA
B19: chr20:58360308:58360409:+|3pUTR|ENSG00000124209|msi1|FALSE|unique (ssRNA)
RNA: GGGAGUUCUACAGUCCGACGAUCCAUUGAACAUGUUAGCCUAGGAUACGUACAGUAAAUUAACAAUGAUAGCAGCAGAUGCCUAGCUCAUCCUGGGUUUGCUUCUGACCUUGUCAUGUGUGUGCCACCAAACACGUUAUUGGCCAACAGAGGAUUGAGCAUCA
B20: chr7:80742902:80743013:-|3pUTR|ENSG00000075223|msi1_unk|total|mutant (ssRNA)
RNA: GGGAGUUCUACAGUCCGACGAUCUCAGAGUCACAGUUCCCUUUAUUUCACAUAAGCCCAAACUGACCGACAGUAACGGUGUUCCGUUUUAUACUAUAUUUGUGCUAUUUAAUUCUUUCUAUUUUCACAAUUAUUAAAUUGUGUCAACAGAGGAUUGAGCAUCA
B21: chr9:15474029:15474130:-|CDS|ENSG00000164985|unk|FALSE|unique (ssRNA)
RNA: GGGAGUUCUACAGUCCGACGAUCAAGAAAAGAGCCGGAUAAAAAAGAGGGGAAGAAAGAAGUUGAAUCAAAAAGGAAAAAUUUAGCUAAAACAGGGGUUACUUCAACCUCCGAUUCUGAAGAAGAAGGAGAUGAUCAAGAAGGCAACAGAGGAUUGAGCAUCA
B22: chr11:112085977:112086295:-|three_prime_utr|ENSG00000150779|control|control|control (ssRNA)
RNA: GGGAGUUCUACAGUCCGACGAUCUCACCCCACUGCCUCACUGGAUUGUGAGGAUCAUAUGCGACAAUGUAUUUGAAAACGACUAGAACAUUAUCGGAGGAAGGUGGACUCUGAAGUAGUCGCUGUAGACUAUGGAUGUAGAACCAACAGAGGAUUGAGCAUCA

target: MSI1 full-length (mouse, UniProt Q61474 1-362); assay: nsRBNS (natural sequence RNA bind-n-seq); RBNS binding buffer (assumed for nsRBNS): 25 mM Tris pH 7.5, 150 mM KCl, 3 mM MgCl2, 0.01% Triton X-100, 500 ug/ml BSA, 20 U/ml SUPERase-In, 4 C; UNK is unkempt and MSI1 is Musashi-1; names of the RNAs are library labels; protein concentration not given here; high values mean tight binding
Chain of UniProt Q61474 (Q61474 whole entry): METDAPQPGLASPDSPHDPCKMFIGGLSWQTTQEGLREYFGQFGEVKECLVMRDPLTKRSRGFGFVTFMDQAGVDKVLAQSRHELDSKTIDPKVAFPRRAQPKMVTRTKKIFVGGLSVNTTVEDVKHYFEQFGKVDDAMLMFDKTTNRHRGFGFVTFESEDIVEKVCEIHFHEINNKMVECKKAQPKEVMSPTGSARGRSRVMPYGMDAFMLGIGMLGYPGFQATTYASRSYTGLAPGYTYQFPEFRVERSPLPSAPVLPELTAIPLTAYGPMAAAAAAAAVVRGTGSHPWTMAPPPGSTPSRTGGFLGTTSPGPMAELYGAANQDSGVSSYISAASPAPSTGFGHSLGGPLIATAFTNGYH

Binder	binding signal [enrichment R]
B1	0.774
B2	1.11
B3	0.514
B4	0.821
B5	1.55
B6	0.526
B7	0.49
B8	0.297
B9	0.569
B10	0.514
B11	0.483
B12	0.705
B13	0.399
B14	0.902
B15	2.34
B16	0.33
B17	1.23
B18	2.06
B19	4.2
B20	3.37
B21	0.83
B22	0.66
